PMC6212790
Some of the results follow. At the low end of the ranking the order means little.

molecular target: T1, GST-Rok (full length) (UniProt O34857); test: protein binding microarray; settings: Rok is a gene silencer of Bacillus subtilis; high values mean tight binding; most listed sequences are background and not binding sites; double strand, one strand shown;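 note: rank score from −0.5 (least bound) to 0.5 (best bound)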
T1 sequence: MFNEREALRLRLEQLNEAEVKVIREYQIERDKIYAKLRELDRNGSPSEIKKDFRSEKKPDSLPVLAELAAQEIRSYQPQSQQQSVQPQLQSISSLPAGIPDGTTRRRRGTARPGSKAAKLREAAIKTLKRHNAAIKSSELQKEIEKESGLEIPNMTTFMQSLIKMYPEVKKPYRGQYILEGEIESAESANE

Sequence | binding signal
CTGCGATC | -0.269 E-score
AGGTTGTC | -0.191 E-score
ACGGTCAA | 0.00563 E-score
AGTCGGGA | -0.217 E-score
GCGCTGGA | -0.0459 E-score
GTCGTAAC | 0.0334 E-score
GACATTCA | 0.041 E-score
ATATCGCC | 0.0826 E-score
CAAGTCAG | -0.093 E-score
CTCCCTTC | -0.352 E-score
CTGTATGA | 0.0887 E-score
CGGACGTA | 0.194 E-score
CGACACGA | -0.089 E-score
GCTTAATA | 0.189 E-score
AGCGTAGG | -0.121 E-score
GAAAGTAA | 0.251 E-score
ATTGAGTC | 0.132 E-score
AACATAGC | 0.168 E-score
CAGCCCTG | -0.31 E-score
GAACTTGC | 0.0534 E-score
CATTATGA | 0.257 E-score
CTGCTCTA | -0.0572 E-score
CCATGGGA | -0.252 E-score
GAACGTGC | -0.141 E-score
CGTTCATC | -0.182 E-score

Sequence | binding signal
CCGATGTA | 0.11 E-score
CGACCGGA | -0.122 E-score
ATGACAGG | 0.0863 E-score
AAACTAAC | 0.233 E-score
GAGGGTCC | -0.363 E-score
GAATAAAA | 0.0162 E-score
CCATGTGA | -0.0861 E-score
GCTAGCCC | -0.0268 E-score
ACACCACG | -0.12 E-score
CGCCCGAG | -0.28 E-score
AAGCTGCG | -0.0688 E-score
CAGACGAC | -0.112 E-score
AGTCAAGC | 0.00916 E-score
ATGTTGTG | -0.104 E-score
AGTAGGTA | 0.404 E-score
ACTCGTCA | 0.0819 E-score
AAGGCGTC | -0.207 E-score
ATCCGTAG | 0.00597 E-score
CCGGCGCC | -0.298 E-score
GTACTAAC | 0.148 E-score
AAAGTAGT | 0.312 E-score
CATGGTGG | -0.31 E-score
TAGATAAA | 0.317 E-score
GGCCCAGA | -0.124 E-score
GCATTGAC | -0.133 E-score

Sequence | binding signal
TAAAAGGA | -0.0508 E-score
CTATAAGC | 0.113 E-score
ACGGCACT | -0.0103 E-score
GCGGATTA | -0.0791 E-score
ACTCGTAG | 0.199 E-score
GTTTGGTA | 0.258 E-score
AAACGCAA | 0.0994 E-score
CGGCCCCA | -0.345 E-score
AAGTTCTA | 0.272 E-score
GGTGTCGA | -0.128 E-score
ATGAAGAA | -0.0853 E-score
GAATCAGC | -0.101 E-score
ATCTCATA | 0.21 E-score
TCCGATAA | -0.0469 E-score
AGGAGGGA | -0.222 E-score
ACCGTCTG | 0.00482 E-score
GGACCCTA | -0.199 E-score
TCGAAACA | 0.04 E-score
GTGAAAGA | -0.00825 E-score
CCAGGGTC | -0.306 E-score
CCCAAGGA | -0.279 E-score
AAAGCCCT | -0.156 E-score
CACCCTAC | -0.176 E-score
ATTCTAGC | 0.257 E-score
ACCGTTCA | 0.155 E-score

Sequence | binding signal
ACCGAATC | 0.0528 E-score
CGAAGAAG | -0.098 E-score
CCGCGGAG | -0.183 E-score
AAATCAGA | 0.0767 E-score
CGATCAAC | -0.0147 E-score
CAGGAAGC | -0.243 E-score
ACGGCGCT | -0.115 E-score
ACCGTATG | 0.0889 E-score
AATTGCGG | 0.17 E-score
CAAGAAGG | -0.351 E-score
ACAGGAAA | 0.0725 E-score
CCTAGCAA | 0.0634 E-score
CATACTGG | 0.0985 E-score
TTCCGGAA | -0.118 E-score
TACCCGTA | 0.0835 E-score
ACGATAAG | 0.194 E-score
AAGTCGAG | -0.0999 E-score
ATGATCAG | 0.134 E-score
ACTGTTAA | 0.09 E-score
TTACGCAA | 0.181 E-score
ACCACAGT | -0.105 E-score
GGTGCTAA | -0.18 E-score
CGCTCACG | -0.352 E-score
ACGCCTGG | -0.304 E-score
AACGAAGG | -0.176 E-score

Sequence | binding signal
AACACACG | -0.0778 E-score
TCGGGGAA | -0.206 E-score
AATCCAGC | 0.0124 E-score
AGATGAGG | -0.214 E-score
ACTCAACT | 0.0434 E-score
GGAAGCGA | -0.209 E-score
AATTTGCC | 0.0434 E-score
GGACCGGA | -0.0399 E-score
GAGCCATA | 0.0249 E-score
GGCAGTAC | -0.0236 E-score
CGGAAACG | -0.261 E-score
CGAGAGCC | -0.275 E-score
CAAACTAC | 0.43 E-score
AGTACCCG | -0.0861 E-score
CTAGCAAC | 0.213 E-score
ACAAGCAG | 0.0145 E-score
AACTCCTG | -0.0126 E-score
AGCTGCCA | -0.0914 E-score
CTCCCACC | -0.26 E-score
AGAGATCC | -0.129 E-score
GCCAGTAC | -0.0694 E-score
AAAGTCAG | -0.0785 E-score
CGGTTTAA | 0.0328 E-score
GCCCACAC | -0.235 E-score
CTGATTTA | 0.0978 E-score

Sequence | binding signal
TCCGCAAA | -0.068 E-score
CCATTCAG | -0.0389 E-score
AAGGTCCC | -0.396 E-score
TAGCACAA | 0.227 E-score
GGTACTGA | 0.0347 E-score
CTGGTTTC | -0.0307 E-score
GTTGTCGA | -0.0235 E-score
GTCATAAC | -0.163 E-score
CCGATCAG | 0.0852 E-score
CGCTGTGC | -0.237 E-score
AGCCTGGG | -0.187 E-score
TTGGCCAA | -0.102 E-score
GCTTCAAC | 0.127 E-score
AACAGGGT | -0.0695 E-score
CCTTGATA | 0.0752 E-score
GACGAGCC | -0.315 E-score
AAGCCAAT | 0.0144 E-score
AGACGTCA | -0.116 E-score
AGTGCCAT | -0.0363 E-score
GAAAACGA | -0.0786 E-score
ACAAAACT | 0.085 E-score
AATCCGTC | 0.0116 E-score
CTCACCGC | -0.203 E-score
ACGCCGAG | -0.303 E-score
AGGGTATG | -0.131 E-score

Sequence | binding signal
ATCGCGCG | 0.192 E-score
CCTAAGGA | -0.225 E-score
GCGAAGTA | 0.155 E-score
AAAAATGC | 0.00513 E-score
CAGATATC | 0.129 E-score
AGCAAATA | 0.185 E-score
AGCGTCGG | -0.0913 E-score
AGACGGGG | -0.403 E-score
AGGATGGA | -0.253 E-score
CTCAAGAG | -0.143 E-score
ATTGCTCA | 0.079 E-score
TCGCTGCA | -0.115 E-score
GGGGAGGA | -0.408 E-score
CCCGCCAA | -0.27 E-score
AAAACCTA | 0.255 E-score
ACCCGCCT | -0.36 E-score
CGTACGGA | -0.12 E-score
AGGCTGAG | -0.126 E-score
CCGATACC | -0.0548 E-score
GACTCCCC | -0.416 E-score
CCGCGTAC | -0.0781 E-score
CGATTAAC | -0.11 E-score
